# Several values for one entry are separate records, joined by “and”; a condition that tells them apart may be missing. Equal values may be shown once. Among all 150,000 compounds or so, about 540 (0.36%) showed an effect of 50% or more. This is one part of the list.
# Test system: Plasmodium falciparum
# Assay: Primary screen in NF54 nanoGlo assay, in single point, at 2uM, 72h; a lower Z score goes with more inhibition
# Format: functional, Erythrocyte
# Conditions: timepoint 72 hour
SMILES,% Inhibition,Z score,% Inhibition (2 µM)
Cc1ncc(NC(=O)C2CN(C3CCCCC3)C2)cn1,-6%,0.62,–
O=C(Cc1cccc(F)c1)Nc1ccc2c(c1)OCCCO2,-5%,0.49,–
Cc1nc(C(C)C)ncc1C(=O)N1CCN(C)[C@@]2(CCNC(=O)CC2)C1,-13%,2.53,–
COc1ccccc1CN(C)c1cc([C@H]2CCOC2)ncn1,-4%,0.76,–
Cc1nn(CC(=O)NCCN2CCCC[C@@H]2CO)cc1Cl,-3%,0.62,–
O=C(CCc1ccc(-c2ccccc2)cc1)NC[C@H]1CCCCO1,-8%,1.1,–
O=C(CN1CCCCC1)OC1CCCCCCCCCCC1,-13%,1.71,–
Cc1ccccc1C(=O)NC1(c2cccs2)CCCC1,8%,-1.1,–
O=C(N[C@@H]1CN(C2CCCC2)CC[C@@H]1CO)c1cccnc1,-16%,2.1,–
COc1cc(Br)cc(C(=O)N2CCn3ncnc3C2)c1,-11%,1.54,–
COc1cc(=O)n2c(c1C(=O)NCCC(C)C)CCN(C(=O)c1cnn(Cc3ccccc3)c1)CC2,-15%,1.66,–
CCc1ccc(S(=O)(=O)N2CC(Oc3nc4ccccc4s3)C2)s1,-12%,1.32,–
CC[C@H](NC(=O)Nc1ccccc1CCC(=O)NC)c1cn2cccnc2n1,-14%,2.11,–
CC(C)[C@H]1CN(Cc2nnc(-c3ccccc3)o2)C[C@@H]1N(C)C,-6%,0.74,–
COc1ccc(CN(C2CCCC2)S(=O)(=O)c2c(F)cccc2F)cc1OC(C)C,-15%,2.05,–
CC(=O)N1CCN(C(=O)c2ccc(N(C)C)cc2)C[C@@H]1C(=O)N[C@@H](CC1CCCCC1)C(N)=O,2%,-0.29,–
O=C(Nc1ccc(F)c(F)c1)c1cccn1Cc1noc(C2CC2)n1,-6%,1,–
CC(C)Oc1ccc(CN2[C@H](CO)CN(C)C(=O)[C@@H]2C)cc1,-1%,0.13,–
N#CC(NC(=O)c1cnn(-c2ccc(F)cc2)n1)C1CCOC1 (stereo not drawn),8%,-0.87,–
CC(=Cc1ccc2ncccc2c1)c1cnccn1,0%,0.07,–
O=C(O)[C@H]1[C@@H]2CN(Cc3ccccc3OC(F)F)C[C@@H]21,-17%,1.54,–
CCOC(=O)NCC(=O)Nc1nc2ccsc2s1,-8%,1.08,–
CC(C)CCNC(=O)c1nc2cccnc2n(C)c1=O,-9%,1.06,–
CCC(CO)Nc1cc(NC2CCCC2Cc2cnn(C)c2)ncn1 (stereo not drawn),6%,-1.1,–
CCN(CC)C(=O)N1CCC[C@H](CCc2nnc(-c3cnccn3)o2)C1,-19%,2.54,–
CCCc1c(C(=O)NC[C@H]2CCN(C)C2)nnn1-c1ccc(C(C)(C)C)cc1,-2%,0.23,–

SMILES,% Inhibition,Z score,% Inhibition (2 µM)
Cc1cccc(-c2nn(-c3ccccc3)c3nc(OCC(=O)N4CCOCC4)cc(C)c23)c1,-16%,2.06,–
COc1c(C)cc(-c2ccc(C(=O)N[C@@H](C)Cn3cncn3)cc2)cc1C,-21%,1.82,–
O=S(=O)(c1ccc(-c2cc(C(F)(F)F)n[nH]2)s1)N1CCc2ccccc21,-4%,0.83,–
CS(=O)(=O)NCCC(=O)Nc1ccc2nscc2c1,12%,-1.62,–
COc1ccc(OC)c([C@H](c2oc3ccccc3c2NC(=O)c2ccccc2)N2CCC(C)CC2)c1,-12%,1.9,–
OC[C@@H]1CCC[C@H](CNCc2cc3ccc(F)cc3[nH]2)C1,1%,-0.15,–
COc1ccc(-c2noc(CN3CCCc4cccc(F)c43)n2)cc1,-10%,0.9,–
CC(=O)c1c(O)n(Nc2nc(C)cc(C)n2)c(C)cc1=O,–,–,-3% and -7%
O=C(c1cnc(CN2CCCC2)s1)N(Cc1ccncc1)C1CCCCC1,1%,-0.09,–
Cc1nn(C)c(C)c1S(=O)(=O)N1CCc2nnc(C3CC3)n2CC1,-8%,1.6,–
CN1C[C@@H]2CCC[C@H]1CN(C(=O)c1cc(Cl)ccc1O)C2,-14%,2.11,–
COc1cccc(NC(=O)N[C@H]2CO[C@@H](CN3CCN(c4cccc(C(F)(F)F)c4)CC3)[C@@H]2O)c1,17%,-1.99,–
Cn1ccnc1CN[C@H]1[C@H](O)[C@@H](n2cc(Cl)cn2)[C@@H]2OC[C@H]1O2,11%,-1.32,–
Cc1noc(C)c1CNC(=O)[C@H]1CC[C@H](C)CC1,-12%,1.59,–
CN(C)S(=O)(=O)n1cc(/C=C(\NC(=O)c2ccccc2F)C(=O)N2CCc3ccccc32)c2ccccc21,-13%,2.17,–
COc1ccc(-c2noc3nc(C4CC4)cc(C(=O)Nc4ccn(C)n4)c23)cc1,31%,-3.49,–
CCCn1ncc(C(=O)NCCCn2c(C)cccc2=O)c1C,-21%,2.14,–
O=C(c1nn2c(C(F)(F)F)cc(-c3ccc(Br)cc3)nc2c1Br)N1CCN(Cc2ccccc2)CC1,-9%,1.34,–
CN(CCN)c1nccc2ccc(F)cc12,12%,-1.26,–
O=C(COc1ccc(Cl)cc1)Nc1cccc(NC(=O)c2ccccc2Cl)c1,-10%,1.31,–
C/C=C(\C)c1nnc(NC(=O)OCC)s1,-25%,3,–
CC(C)N1C2CCC1CN(C(=O)c1[nH]nc(C3CC3)c1Cl)CC2 (stereo not drawn),-5%,0.6,–
CCCN1C(=O)CC[C@@H]2CN(C(=O)c3cccc4[nH]c(C)nc34)CC[C@@H]21,-1%,0.18,–
CC(C)N1CC2(CCN(C(=O)Cc3cccc(F)c3)CC2)[C@H]1c1ccccc1,0%,0.06,–
Cn1cnc2c(C(=O)Nc3cccc(C(F)(F)F)c3)nn(-c3ccc(F)cc3)c2c1=O,4%,-0.35,–
CN(C)S(=O)(=O)c1ccc(N2CCCCC2)c(C(=O)NCc2ccc(N3CCCC3=O)cc2)c1,12%,-1.78,–
